The other results are listed elsewhere or left out.
B1: 134322000_134322562_941_3pUTR_ENSG00000130723_ENST00000357304|human|control|control (ssRNA)
RNA: GGGAGUUCUACAGUCCGACGAUCAAGGAACUCGAGGUUCAAGGCGGAGCUGAGGAAGGGGAAAAGAGCCUCGUUCCACUGUACCCUGGUUUUCUGAUGACUUCGGCGAACACAUAAAAGCAGGAAGCAUGUCAUGGUAUGUAGCAACAGAGGAUUGAGCAUCA
B2: 216279640_216284043_2066_CDS_ENSG00000115414_ENST00000323926|human|control|control (ssRNA)
RNA: GGGAGUUCUACAGUCCGACGAUCCGGAGUCUCAGUGAUAAAUACUUCGACAGGACCACUUGAGCUUGGAUAGGUCUGUAAAGGUUGGCAAUGCCACUCCCCAAUGCCACGGCCAUAGCAGUAGCACUGGUAUCUGACACCAUGCAACAGAGGAUUGAGCAUCA
B3: chr8:13935169:13935170:+_ENSMUSG00000038365_ENSMUST00000043520|mus_mus|FALSE|FALSE (ssRNA)
RNA: GGGAGUUCUACAGUCCGACGAUCCGGGUAAUACUUCUGAAGCGUGAAAUACAUCAGCUUCCACUCGAUAUGACCUUUUUCUGAAAGGAUCAAAUGUCUACAAAACUGCUGCUCAGCAAAGUGGUACUGACACAGUCGCUUCCACAACAGAGGAUUGAGCAUCA
B4: 64573157_64573738_1184_CDS_ENSG00000133895_ENST00000312049|human|control|control (ssRNA)
RNA: GGGAGUUCUACAGUCCGACGAUCCUCCUUCAGCAGGUUGGGGAUGACAUCAUUGGCUACUUCAAAGAACUCCUUGUAGAUCUCCUCGUCUUCCCGGCAGUAGUUGUAGUCCUGGAUGACAGUGGCCGUGUCCGCCCAGGCCUGCAACAGAGGAUUGAGCAUCA
B5: chr9:131455196:131455197:+_ENSG00000119335_ENST00000372688|hu_hu|FALSE|FALSE (ssRNA)
RNA: GGGAGUUCUACAGUCCGACGAUCAAAUUCUUUGGAGAGAACUUUAUUUUCAAAGUAAGGAUUUUCAUCAAAAUAAAAAUCUAUUCUGUAACCUGAUUUAAUAUCUUCAAAUUCUGUCACUUCAACUCUGGUCAAAUAAUGCAGCAACAGAGGAUUGAGCAUCA
B6: 115922778_115922898_456_CDS_ENSG00000165813_ENST00000369287|human|control|control (ssRNA)
RNA: GGGAGUUCUACAGUCCGACGAUCUGUUUUGGCACAAGAAUCCUCACCUCCACCAUGAUCUGGAAUAUAAUUUUCCUGGGCUUCAAUUCGAUUAUUAUGCUCAUUAGGUUGACAUAAAGUUUUAUCAGUGUUUAAUGACAAUAGCAACAGAGGAUUGAGCAUCA

Target: T1, UNK ZnF1-3 (human, UniProt Q9C0B0 31-174)
T1 sequence: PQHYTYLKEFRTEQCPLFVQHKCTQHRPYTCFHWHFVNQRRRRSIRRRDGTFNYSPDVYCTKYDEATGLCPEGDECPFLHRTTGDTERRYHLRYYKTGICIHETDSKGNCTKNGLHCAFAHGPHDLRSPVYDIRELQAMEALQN
Assay: nsRBNS (natural sequence RNA bind-n-seq); RBNS binding buffer (assumed for nsRBNS): 25 mM Tris pH 7.5, 150 mM KCl, 3 mM MgCl2, 0.01% Triton X-100, 500 ug/ml BSA, 20 U/ml SUPERase-In, 4 C; UNK is unkempt and MSI1 is Musashi-1; names of the RNAs are library labels; protein concentration not given here; high values mean tight binding

Binder	binding signal [enrichment R]
B1	1.65
B2	0.709
B3	0.589
B4	1.04
B5	0.759
B6	0.915
